Some of the results follow.
tested on: PfAP2-HC AP2 domain (GST-tagged); experiment: gcPBM binding intensity (ln(normalized median fluorescence intensity)); higher = stronger DNA binding
In short: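 For binding intensity, the highest Masliner-normalised natural-log median intensity across replicate spots of either probe orientation was taken. Protein bound to the array was stained with Alexa488 anti-GST antibody and scanned at 488 nm. The protein, GST-tagged P. falciparum DNA-binding domains from E. coli at about 25 μg on average, had been applied for 1 h to an Agilent 4 × 180k array of primer-extended double-stranded 36-bp intergenic genomic probes and negative controls.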

Row | Sequence | gcPBM binding intensity (ln)
1 | TAGTTAATATGATTATGTACATATATATATTAATTT [XGTACX_site1750] | 9.52
2 | ATTTTTTTTTTTTTTTTTTTTTTTTTTTTTGTTGTT [CACACA_negctrl_site1313] | 9.16
3 | TGTATATGAAAAAATAGTACTCATATAAATATCTTT [XGTACX_site6542] | 9.53
4 | ATAATATATTTATAAACACACAAAAAAAGTTATATA [CACACA_site6831] | 9.81
5 | TTTATTTTATTCACTATCATAAGCAAAACTTAAACA [GTGCAC_negctrl_site287] | 9.21
6 | ATTAATAATATTACATGTACATAATATAATTGAAAA [XGTACX_site5084] | 9.67
7 | AAAATAATAAAAAAAAAAAAAAAAAAAAAAAAGTAT [TGCATGCA_negctrl_site193] | 9.61
8 | ATATATCTTCTTTGCACACTTAAAGGGAAGTGATAA [CACACA_site342] | 9.51
9 | AAAAAAATAATAAAATGTACAAATAAACACATAAAG [XGTACX_site5102] | 10.1
10 | AAATAAAATAAAACAACACACACGAATGTATAAATA [CACACA_site885] | 10.3
11 | AATAAATATAAATACACACCCATATAAATATAAATA [CACACA_site7264] | 10.1
12 | ACAAAGATAAAACATAAAATATATCAAACATAAAAT [XGTACX_negctrl_site198] | 9.75
13 | AAAAAAAATACATGTTGTACGGTACAAATATAAAGT [XGTACX_site2863] | 10.1
14 | CGCGCCCAGAAACACACACACACACCGATATATATA [CACACA_site5250] | 10.4
15 | TAATGTATCTAAAATTGTACAAATATAAATCTAAAT [XGTACX_site1197] | 9.59
16 | TATATACACGCACATACACACAAATAAAAAAACACC [CACACA_site7578] | 10.2
17 | GTATTATTCTATAGAAGTACAGTATATTATTATTTA [XGTACX_site5073] | 9.59
18 | TGTGTTGTAATTAAAACACACATGAAAAAATTAAAA [CACACA_site51] | 9.78
19 | TAAGGATTGGTATAAAGTACAGGAGTAAATTGAAAA [XGTACX_site8525] | 9.88
20 | TACATATTGAATAAGACACACATATATATATATATA [CACACA_site1878] | 9.79
21 | CATACACATATATATTGTACACATATATGTATGTAT [XGTACX_site4030] | 9.74
22 | ATATTTTTTTTTTATTGTACCCTCATAAAAGAAAAG [XGTACX_site773] | 9.2

Row | Sequence | gcPBM binding intensity (ln)
23 | TACAACAAGTAATGGTGTACATTATATTATGTAATA [XGTACX_site1194] | 9.76
24 | TATAACAATTTTTATGCATGCGACTATAATATTTTT [TGCATGCA_site508] | 9.75
25 | GGAATAAATAATATTATACACACGTATATTATTATA [CACACA_site2435] | 9.72
26 | AAGCTTTCATAAAGATGTACTTTTTAAAAATAATCT [XGTACX_site5725] | 9.33
27 | TGTGCATAATTTTGTGCACACCACGCTAATAATTTT [CACACA_site2915] | 9.72
28 | ATAAATATATGATAAAGTACATATTTATATAATAAA [XGTACX_site7263] | 9.6
29 | TGATATTATATATATACACACATGTATGTATATATA [CACACA_site1364] | 9.72
30 | ATATTTATTTATAATTGTACTAATAATATATTTTAA [XGTACX_site587] | 9.51
31 | ATGTATCTATATATATGTACACATATTTTAATTAAA [XGTACX_site3673] | 9.79
32 | AAAATAAAAAATTAATGTACTTAGAATTGTCACTAA [XGTACX_site1346] | 9.64
33 | TTTTTCATGTTTATTAGTACATATATTAAGAATGGA [XGTACX_site3493] | 9.35
34 | ACCTATTTATAATAGTGTACGTACAAATTTGTTTAC [XGTACX_site8176] | 10.1
35 | TTTTGTAAATATATATGTACATATATATATATATAT [XGTACX_site5803] | 9.65
36 | AATTTGTTGAAACACACACACACATACATATATATA [CACACA_site2287] | 11.3
37 | TAAAATAATAAACAGAAGAAATCATTCATATAAAAA [XGTACX_negctrl_site502] | 9.59
38 | AAAGAAAATAACAAAATTTTGAAAACATCACATTCG [CACACA_negctrl_site89] | 9.99
39 | AAATTAAAGGCATAAAAGAAAATATTTAATAAAAAA [CACACA_negctrl_site1689] | 9.59
40 | ATATATAATAAACAGGTGCATTGTTTTATTTTGTAT | 9.78
41 | TTTTTTTTAATTGTGATACGTATATTATTTAATGAT [CACACA_negctrl_site38] | 9.59
42 | ACCAGTTCTTAATACAAATATGTACATATATATATA [GTGCAC_negctrl_site56] | 9.65
43 | AGCAGGATTAAAAAAAGTACAAGAATTAATATTTAA [XGTACX_site3413] | 9.57
44 | ATTTTTTATTGTTATAAAAAAAAAATTAAACAATTA [CACACA_negctrl_site1077] | 9.21

Row | Sequence | gcPBM binding intensity (ln)
45 | AATTATTATCCCCTCACACACAAAAATAAAAAGAAT [CACACA_site2885] | 10.2
46 | TATATCTATAATATTACACACATATATTTATATTTT [CACACA_site7595] | 9.86
47 | CAAAAAAAGGAAAAGATACACACCGTAAATTAAAAT [CACACA_site3612] | 9.94
48 | TATTCGTCTTTTTTCTCACACACCCTTTTTATTAAA [CACACA_site2508] | 9.97
49 | TATTTCATCTTATTTTAGGAAAAACTAATATATAAG [CACACA_negctrl_site1823] | 9.2
50 | AAATTTAGGAACATTATATATATATATATATATATA [CACACA_negctrl_site862] | 9.41
51 | GAACATTTGAAATATGCACACATGTATAAACCTACA [CACACA_site2654] | 9.85
52 | TAAAAATAAAGAAAATGTACATAAATAATAATACAT [XGTACX_site2278] | 9.81
53 | CCCACATAAAAAAATAAACACACATATGTATATATA [CACACA_site9040] | 9.98
54 | AAATGGGCTTATTTATGTACTTAAATATATCTACCC [XGTACX_site3823] | 9.61
55 | TAATCAATTCAATATTGTACGATATTTACCTTTAAA [XGTACX_site4678] | 9.67
56 | TACATATATATATACACACATACATATATATACGCA [CACACA_site792] | 9.85
57 | AACCTCGTGTAATATGCATGTTCCCTTCAAAGTTTT [TGCATGCA_site459] | 9.61
58 | ATTATACATTTTAGATGTACATATTTTAAATTTAAT [XGTACX_site5174] | 9.62
59 | ATATTTTGTATAATCACACACACTATTCTTAAATAG [CACACA_site7270] | 9.98
60 | AGAAATTAATCGAAGTGTACATATAAACATACATAT [XGTACX_site5518] | 9.79
61 | AACAAACAAACAAATATACACACTTTTGTATAAAGT [CACACA_site3509] | 9.88
62 | TACATTGTATACATATGTACACATATATATATATAT [XGTACX_site6174] | 9.87
63 | TATTTATGTTATAATTGTACAATAAACAAATTTTTT [XGTACX_site5306] | 9.42
64 | AAAAAAATCTATATTACACACATATATACCTATATA [CACACA_site7464] | 9.8
65 | TATATATATATAATGTGTACATACTAAATAGAGGAC [XGTACX_site4153] | 10
66 | GAAATGTATAAATCCATACACACATAAATTTTAATA [CACACA_site2364] | 9.96

Row | Sequence | gcPBM binding intensity (ln)
67 | TAAATATAAAAATGCACACACACAAAAAAAAAAAAA [CACACA_site895] | 11.4
68 | ATAGGTGAATACTAATATAAATTCAAGAGGGAAAAG [CACACA_negctrl_site720] | 9.73
69 | TTTACATTAAATCACGCACACAAAAAAAAAAAAAAA [CACACA_site2418] | 9.94
70 | TATTTATTTGTGGGGTGTACGAAATTTTTTTTTTTT [XGTACX_site5091] | 9.97
71 | ATCTATGGAGCTTATACACACTTTTATATTTTAACA [CACACA_site5994] | 9.82
72 | TTTGAATTTTTATATACACACATTATTATATTATAT [CACACA_site1593] | 9.91
73 | CCTTTCTATTGAAAATGTACATATATATTATTATAT [XGTACX_site5527] | 9.73
74 | AATAATTGTAGACATGCACACACAAATATTATATAT [CACACA_site8181] | 10.4
75 | AATAATTGTTATAGTTGTACAATACATATATTACAA [XGTACX_site30] | 9.73
76 | TGTATATATAAAAATATACACACTGTATTATTGTAA [CACACA_site3757] | 9.67
77 | CATATTTTGAACTTCACACATATATATATATATATA [CACACA_site4228] | 9.68
78 | GGTAGATTATTATTAACGAAAAATGTTTTTAACATA [GTGCAC_negctrl_site216] | 9.35
79 | AAATAAAAAATGGAAATCTTAACAAGAATCATTAAC [CACACA_negctrl_site1626] | 9.77
80 | TATATACAGAATATATGTACATATTCATTTTATATT [XGTACX_site5139] | 9.66
81 | AAAAAATAAATAAATAGTACTTTAAAAGAAAAAAAA [XGTACX_site5051] | 9.72
82 | AAAGAAAACCAAGTGGTGCATTTTCGTTACTTCATC | 9.55
83 | CAATGTTACTATAATACACACAATATGTATTTGTCT [CACACA_site6668] | 9.93
84 | TTGTTTAACTTGTTAAATATAATGTATCTGTGGATA [GTGCAC_negctrl_site108] | 9.39
85 | AATATATATACTTTTTTTTTTTTTTTTTTTTTTTTT [CACACA_negctrl_site520] | 9.38
86 | ACAAATTGTTAAAGGTGTACAATACATATATAAGAA [XGTACX_site4906] | 9.89
87 | TATGTTTACATATACGTGCACATGAATGTATACATT [GTGCAC_site9894] | 9.73
88 | TTTAGCACAAACAAAAAAAAAATAGAAAAAAATATA [CACACA_negctrl_site1772] | 9.46

From the supplement of paper PMC11417369
